Measurements: PubChem BioAssay AID1963576 (National Center for Advancing Translational Sciences (NCATS), 2024)
Out of some 46,000 compounds screened, about 60 (0.1%) were called active. Another 3% or so got no clear call; they are omitted. Calls come from the whole dose curve; as a rule, active = well fitted inhibition curve with a large enough effect; inconclusive = small, poorly fitted or top-dose-only effect; inactive = no such curve, though single readings can be large or run the other way. This is one part of the list.

Assay: Primary qHTS assay for Inhibitors of ovarian cancer metastasis using an organotypic tumor microenvironment (TME) model.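 For activity change, negative = inhibition: plate controls were DMSO wells for no effect and tomatine positive control wells for full effect.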 Note: nearly all actives have a fitted effect of over 65% in size.
Settings: SKOV3ip1-GFP adhesion/invasion on 3D omental model, fluorescence; series mostly up to 45.8 µM; activity change, negative = inhibition: at the top concentration
Procedure, shortened: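 A 3D layer of primary human omental fibroblasts, mesothelial cells, fibronectin and collagen I, grown 48 hr, received SKOV3ip1-GFP cells in serum-free medium plus compounds at 0.36-46 umol/L. After 2 hr RT and 16 hr 37 C, fixed adherent GFP cells were counted; normalized to DMSO and tomatine.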

outcome, inactive:
Cc1cc(NS(=O)(=O)c2ccc3oc(=O)c4ncn(C)c4c3c2)ccc1Br
CC(C)c1ccc(N2C(=O)CSC23C(=O)N(Cc2ccccc2)c2ccccc23)cc1 (centres undefined)
O=C(Cn1cc(SCc2c(F)cccc2Cl)c2ccccc21)N1CCCC1
COc1cccc(CNC(=O)C(C)n2c(=O)cc(-c3ccccc3)c3c(C)nn(C)c32)c1 (centres undefined)
Cc1nc2ccn(Cc3ccco3)c(=O)c2cc1C(=O)N1CCN(c2ccc(F)cc2)CC1
O=C(/C=C/c1ccccc1Cl)Nc1nc(-c2cccs2)ns1
CCc1ccccc1NC(=O)Cn1c(=O)n(Cc2ccc(OC)cc2)c(=O)c2oc3ccccc3c21
CCOC(=O)c1c(C)c(-c2ccccc2)n(CC(=O)NC(CC)Cc2ccccc2)c1C (centres undefined)
Cc1ccc(NC(=O)C2CC(=O)N(c3ccc(OC(C)C)cc3)C2)cc1 (centres undefined)
CCc1ccccc1N(C)C(=O)c1ccc2c(=O)n3c(nc2c1)CCCCC3
CCCOc1ccc(C2C(=O)N(C3CCCCCC3)CC(=O)N2CCC)cc1OC (centres undefined)
Cc1ccc2c(c1)C(=O)OC(C(=O)Nc1ncc(Cc3ccc(Cl)cc3)s1)C2 (centres undefined)
O=C(COc1ccc(Cl)cc1Cl)Nc1cccc2cccnc12
Cc1ccc(CNC(=O)c2ccc(CN3CC(=O)N4CCCCC4C3=O)cc2)cc1 (centres undefined)
COc1cc(NC(=O)c2nc3nc(C)cc(C(F)F)n3n2)c(OC)cc1Cl
COc1ccc(S(=O)(=O)N2CCN(c3cccc(C)c3C)CC2)c2ccccc12
CCCCOc1ccc(Cn2c(=O)oc3ccc(C)cc32)cc1OC
CCN(Cc1ccccc1)Cc1c(O)ccc2oc(C)c(C(=O)Nc3ccc(C)cc3C)c12
COCCCNC(=O)CCn1c(=O)c2ccccc2n(CC(=O)Nc2cc(Cl)ccc2OC)c1=O
O=C(NCCc1ccc(Cl)cc1)c1ccc2c(c1)N(Cc1ccc(Cl)cc1)C(=O)CS2
C=Cc1ccc(Cn2c(=O)n(-c3cccc(Cl)c3)c(=O)c3c4c(sc32)CN(C(C)=O)CC4)cc1
CCc1nn2c(=O)cc(COC(=O)Cc3ccccc3)nc2s1
COc1ccc(NC(=O)CSC2=Nc3ccccc3C3=NC(CC(=O)NCCc4ccccc4)C(=O)N23)cc1 (centres undefined)
Cc1ccc(S(=O)(=O)c2cn(Cc3ccccc3)c3cc(N4CCCCC4)c(F)cc3c2=O)cc1
COc1ccc(-c2noc(-c3ccc(N4CCOCC4)c([N+](=O)[O-])c3)n2)cc1
CCOC(=O)c1c(C)sc(-c2c(-c3ccccc3)[nH]c3[nH]c(=O)[nH]c(=O)c23)c1O

Activity change, negative = inhibition, inactive:
COc1cc2c(Oc3ccc4[nH]c(C)cc4c3F)ncnc2cc1OCCCN1CCCC1 8.34%
COc1ccc(NC(=O)N2CCN(S(=O)(=O)c3ccc4c(ccn4C)c3)CC2)c(OC)c1 -20.1%
CN(Cc1ccccc1)C(=O)CSc1nc(-c2ccc(F)cc2)cc(C(F)(F)F)n1 -0.459%
CCOc1ccc(CC(=O)Nc2c(C(=O)c3ccccc3)oc3ccc(OC)cc23)cc1OCC -5.65%
COCCOC(=O)c1c(-c2ccccc2)c(-c2ccccc2)nn(C)c1=O -6.43%
Cc1ccc(/C=C(\C#N)c2nc3ccccc3c(=O)[nH]2)cc1 5.3%
O=C(Nc1nnc(S(=O)(=O)N2CCc3ccccc32)s1)c1cccc(Cl)c1 6.01%
CCCC(CCC)C(=O)NC1CC(=O)N(c2ccc3c(c2)OCCO3)C1 (centres undefined) -10.2%
COc1ccc(Cc2nc3ccc(C(=O)NCc4ccccc4Cl)cc3o2)cc1 -8.53%
O=C1OC(C(=O)Nc2cc(C(F)(F)F)ccc2Cl)Cc2ccccc21 (centres undefined) 10.7%
Cc1ccc(C)c(N2CCN(C(=O)c3cnn(-c4ccccc4Cl)c3C3CCN(C(=O)OC(C)(C)C)CC3)CC2)c1 -1.58%
O=C(CSc1nc(-c2ccc(F)cc2)[nH]c1-c1ccc(F)cc1)Nc1ccc2c(c1)OCCO2 -16.8%
CCN(CC)c1ccc(NC(=O)C2CCN(S(=O)(=O)c3cnc[nH]3)CC2)c(C)c1 -11%
CCOc1ccc(CC(=O)NCC(c2cccs2)S(=O)(=O)c2ccc(F)c(C)c2)cc1 (centres undefined) 1.99%
O=C(COc1ccc(Cl)cc1)Nc1ccccc1OCc1cc(=O)n2ccccc2n1 4.8%
COc1ccc(S(=O)(=O)NCC(c2ccc(N(C)C)cc2)N2CCc3ccccc32)cc1OC (centres undefined) -24.9%
COc1ccccc1N1CCN(C(=O)c2cnn(-c3ccc(F)cc3F)c2C2CCNCC2)CC1 20.2%
COc1cccc2c1C(=O)c1c(O)c3c(c(O)c1C2=O)C[C@@](O)(C(=O)CO)C[C@@H]3O[C@H]1C[C@H](N)[C@H](OC2CCCCO2)[C@H](C)O1 (some centres undefined) -1.73%
Cc1ccc(Nc2nnc(-c3ccc(C)c(S(N)(=O)=O)c3)c3ccccc23)cc1 -24.6%
COc1cccc(C(=O)Nc2ccc3oc(-c4cccc5c(Br)cccc45)nc3c2)c1 -26.8%
CN(C)S(=O)(=O)c1ccc(C(=O)NCCSc2c(-c3ccc(Cl)cc3)[nH]c3ccccc23)cc1 -2.68%
COc1ccc(N2CCN(C(=O)CCc3c(C)nc4cc(-c5ccc(OC)cc5OC)nn4c3C)CC2)cc1 26%
CCOC(=O)c1c(NC(=O)c2ccccc2OCC)sc2c1CCC(CC)C2 (centres undefined) 22.4%
Cc1cccc(OCC(=O)Nc2cccc3cccnc23)c1C -3.93%
O=C(c1ccc2c(c1)CCN2S(=O)(=O)c1ccc(Cl)cc1)N1CCN(c2ccc(F)cc2)CC1 -1.93%
CCOc1ccc(NC(=O)NCc2cccn2Cc2ccccc2)cc1 7.63%
Cc1cccc(C)c1-n1ncc(C(=O)NC2CCCC2)c1C1CCN(C(=O)OC(C)(C)C)CC1 9.75%
Cc1c(C(=O)OC2CCCCCC2)[nH]c2c1C(=O)CC(c1ccc(Cl)cc1)C2 (centres undefined) 4.53%
O=S(=O)(O)c1ccc2cc(N=Nc3cc(S(=O)(=O)O)c4cccnc4c3O)ccc2c1 -13.6%
Cc1nnc(N2C(=O)c3oc4ccccc4c(=O)c3C2c2ccc(Cl)cc2)s1 (centres undefined) 8.73%
CC(=O)N1CCC(N(Cc2ccco2)C(=O)Nc2ccc(C)c(Cl)c2)CC1 -8.41%
Cc1ccc2[nH]c3c(=O)n(CC(=O)N(CCN(C)C)Cc4ccccc4)ncc3c2c1 -15%
Cc1ccc2oc(-c3ccc(C)c(NC(=O)/C=C/c4ccc(Cl)cc4)c3)nc2c1 -6.55%
Cc1cc(C)cc(NC(=O)Cn2cc(C(=O)c3cccs3)c3ccccc32)c1 3.82%
COc1ccc(Nc2c(-c3ccc(C)o3)nc3cc(C)ccn23)cc1 15.9%
CCOc1ccc(N2CC(NC(=O)C3CCCCC3)CC2=O)cc1 (centres undefined) 9.67%
CCOC(=O)CNC(=O)N1[C@H](c2cccs2)[C@@H](C)C(=O)[C@@H](C)[C@@H]1c1cccs1 2.7%
CC(C)(C)c1nc2c3cc[nH]c(=O)c3c3cc(F)ccc3c2[nH]1 4.8%
COc1ccc2c(c1)c(=O)c(C(=O)c1ccc(F)cc1)cn2CC(=O)Nc1ccc2c(c1)OCO2 4.31%
CCc1c(C)nc2nncn2c1NCc1ccccc1 9.84%
O=S1(=O)c2ccccc2N(Cc2ccc(Cl)cc2)c2ccccc21 -0.155%
CCc1nnc(NC(=O)c2nc(SCc3ccccc3F)ncc2Cl)s1 4.39%
Cc1cc(Br)ccc1NC(=O)c1sc2nc3n(c(=O)c2c1C)CCCC3 -9.27%
CC(C)CCNC(=O)Cn1c(-c2cccs2)cc2cc(F)ccc21 -1.38%
Cc1ccc(NC(=O)C2CCN(c3nnc(C)c4c(C)n(-c5ccccc5)nc34)CC2)c(Cl)c1 4.07%
COc1ccc(Cl)cc1C(=O)Nc1nnc2n1CCS2 -16.4%
Cc1ccc(S(=O)(=O)N(CC(=O)NCCSc2ccc(Cl)cc2)c2ccccc2C)cc1 -3.13%
O=C(CCCCCn1c(=O)c2sccc2n(Cc2ccc(Cl)cc2)c1=O)NCc1ccc2c(c1)OCO2 17.3%
CC(C)c1ccc(NC(=O)N2c3ccccc3Sc3ccccc32)cc1 1.22%
Cc1cc(C)c(NC(=O)Cn2nnc(S(=O)(=O)c3ccc(C)c(C)c3)c2N)c(C)c1 9.26%
COc1ccc(-c2cc(C(=O)N3CCN(c4ccccc4)CC3)no2)cc1 -29.4%
Cc1cccc(N2CCn3c2nc2c3c(=O)n(C/C=C/c3ccccc3)c(=O)n2C)c1 11.6%
CCCCN(CC)c1nc(-c2ccccc2F)nc2ccccc12 5.73%
CN1C(C(=O)Nc2cccc(O)c2)=CC(c2ccco2)=NS1(=O)=O 2.48%
O=C(O)C1=NC(C(=O)O)CC(C=CN2c3cc(O)c(OC4OC(CO)C(O)C(O)C4O)cc3CC2C(=O)O)=C1 (centres undefined) -15.4%
O=C(Cc1ccccc1)Nc1sc2c(c1C(=O)Nc1cccc(Cl)c1)CCCCC2 16.5%
CC(C)OCCCn1c(=O)c2ccccc2n2c(-c3ccccc3)nnc12 3.16%
CC(C)(C)C1CCc2c(sc(NC(=O)c3cccc(Cl)c3)c2C(=O)NCc2ccco2)C1 (centres undefined) -8.65%
COc1cc(OC)c(NC(=O)CCS(=O)(=O)c2ccc3c(c2)oc(=O)n3C)cc1Cl 7.33%
O=C(NCc1ccco1)c1ccc(Cn2c(SCc3ccccc3)nc3cccnc32)cc1 -2.86%
CC(C)CCOc1ccc(Cn2c(=O)oc3ccccc32)cc1 -4.45%
COc1ccc(NCc2cccn2-c2nnc(N3CCCCCC3)s2)cc1 -26%
CCc1ccc(S(=O)(=O)NCc2ccc3c(c2)CCN3C(=O)c2ccc(C)cc2)cc1 -6.86%
CC1=C(C(=O)Nc2ccccc2C)C(c2cccs2)n2nc(SCc3ccccc3)nc2N1 (centres undefined) 5.36%
CN(Cc1ccccc1)C(=O)CSc1nnc(-c2cccc(Cl)c2)o1 -1.39%
CCc1ccc(CNC(=O)C2COc3ccc(OC)cc3C2)cc1 (centres undefined) 2.42%
Cc1scc(CN2CCN(c3ccccc3F)CC2)c1C 9.54%
CN(C(=O)CC(=O)Nc1ccc2nc3n(c(=O)c2c1)CCCCC3)c1ccccc1F -0.82%
